# Source: the supplement of paper PMC4967469
# By IC50 is meant the dose at which the fit gives 50% viability; fits outside the tested doses are given as limits. The AUC spans the tested range (256-fold, ending at the top dose) of the same fit: 1 means no effect, lower means more sensitive. For some of these results: The top dose, if marked as inferred, comes from the curve model; the source does not state it. For some of these results: An entry number marks a drug with two screens in the source, which often give different values.
# Key:
# Assay in all cases: Viability of human cancer cell lines after 72 h of drug (GDSC screen)
# TW-37 = compound: CC(C)c1ccccc1Cc1cc(C(=O)Nc2ccc(S(=O)(=O)c3ccccc3C(C)(C)C)cc2)c(O)c(O)c1O [TW-37]; conditions: top dose 5 µM
# Procedure: (§1)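 Human cancer cell lines in 384-well plates, medium with 10% serum, drug for 72 h over a 256-fold dose range (nine 2-fold or five 4-fold steps up to the top dose). Adherent lines were fixed and stained with the nucleic acid dye Syto60, suspension lines read with resazurin; signal relative to control wells, capped at 0 and 100%. One two-parameter sigmoid per drug and line, fitted in a mixed model over all curves with the slope shared within a line.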
# Gemcitabine = compound: Nc1ccn([C@@H]2O[C@H](CO)[C@@H](O)C2(F)F)c(=O)n1 [Gemcitabine]; conditions: top dose 1.024 µM
# Procedure: as §1
# Bicalutamide = compound: CC(O)(CS(=O)(=O)c1ccc(F)cc1)C(=O)Nc1ccc(C#N)c(C(F)(F)F)c1 [Bicalutamide]; conditions: top dose inferred
# Procedure: as §1
# GNF-2 = compound: NC(=O)c1cccc(-c2cc(Nc3ccc(OC(F)(F)F)cc3)ncn2)c1 [GNF-2]; conditions: top dose 1.28 µM; top dose inferred
# Procedure: as §1
# T0901317 = compound: O=S(=O)(c1ccccc1)N(CC(F)(F)F)c1ccc(C(O)(C(F)(F)F)C(F)(F)F)cc1 [T0901317]; conditions: top dose 10.24 µM; top dose inferred
# Procedure: as §1
# AUY922 = compound: CCNC(=O)c1noc(-c2cc(C(C)C)c(O)cc2O)c1-c1ccc(CN2CCOCC2)cc1 [AUY922]; conditions: top dose 0.256 µM; top dose inferred
# Procedure: as §1
# Nilotinib = compound: Cc1cn(-c2cc(NC(=O)c3ccc(C)c(Nc4nccc(-c5cccnc5)n4)c3)cc(C(F)(F)F)c2)cn1 [Nilotinib]; conditions: top dose 2 µM
# Procedure: as §1
# LFM-A13 = compound: C/C(O)=C(\C#N)C(=O)Nc1cc(Br)ccc1Br [LFM-A13]; conditions: top dose 16 µM; top dose inferred
# Procedure: as §1
# KIN001-270 = compound: Cc1ccc(Nc2cc(-c3cccc(N4C(=O)c5ccccc5C4=O)c3)ncn2)cc1NS(C)(=O)=O [KIN001-270]; conditions: top dose 20 µM; top dose inferred
# Procedure: as §1
# MP470 = compound: S=C(NCc1ccc2c(c1)OCO2)N1CCN(c2ncnc3c2oc2ccccc23)CC1 [MP470]; conditions: top dose 20 µM; top dose inferred
# Procedure: as §1
# [1] = top dose 1.024 µM, screen: GDSC drug entry 150
# [2] = top dose 10 µM, screen: GDSC drug entry 1502
Cell Line,AUC (TW-37),IC50 (TW-37),AUC (Gemcitabine),IC50 (Gemcitabine),AUC (Bicalutamide; [1]),IC50 (Bicalutamide; [1]),AUC (Bicalutamide; [2]),IC50 (Bicalutamide; [2]),AUC (GNF-2),IC50 (GNF-2),AUC (T0901317),IC50 (T0901317),AUC (AUY922),IC50 (AUY922),AUC (Nilotinib),IC50 (Nilotinib),AUC (LFM-A13),IC50 (LFM-A13),AUC (KIN001-270),IC50 (KIN001-270),AUC (MP470),IC50 (MP470)
"NCI-H1304 (small cell lung carcinoma, suspension)",0.951,> 5000 nM,0.547,86.9 nM,0.982,> 1020 nM,0.986,> 10000 nM,0.988,> 1280 nM,0.988,> 10200 nM,0.737,81.1 nM,0.97,> 2000 nM,0.979,> 16000 nM,0.987,> 20000 nM,0.939,> 20000 nM
"NCI-H1417 (small cell lung carcinoma, suspension)",0.574,519 nM,0.754,403 nM,0.978,> 1020 nM,0.973,> 10000 nM,0.98,> 1280 nM,0.974,> 10200 nM,0.677,55.4 nM,0.955,> 2000 nM,0.972,> 16000 nM,0.982,> 20000 nM,0.703,5250 nM
"NCI-H1436 (small cell lung carcinoma, suspension)",0.813,3200 nM,0.986,> 1020 nM,0.985,> 1020 nM,0.976,> 10000 nM,0.972,> 1280 nM,0.978,> 10200 nM,0.868,> 256 nM,0.98,> 2000 nM,0.983,> 16000 nM,0.983,> 20000 nM,0.857,20000 nM
"NCI-H1581 (large cell lung carcinoma, semi-adherent)",0.358,131 nM,0.909,> 1020 nM,0.99,> 1020 nM,0.971,> 10000 nM,0.988,> 1280 nM,0.963,> 10200 nM,0.926,> 256 nM,0.98,> 2000 nM,0.985,> 16000 nM,0.965,> 20000 nM,0.881,18100 nM
"NCI-H1694 (small cell lung carcinoma, suspension)",0.646,789 nM,0.54,82.2 nM,0.989,> 1020 nM,0.988,> 10000 nM,0.989,> 1280 nM,0.954,> 10200 nM,0.914,> 256 nM,0.983,> 2000 nM,0.985,> 16000 nM,0.974,> 20000 nM,0.837,13300 nM
"NCI-H1770 (non-small cell lung carcinoma, suspension)",0.461,248 nM,0.518,71.4 nM,0.992,> 1020 nM,0.99,> 10000 nM,0.992,> 1280 nM,0.991,> 10200 nM,0.733,66.7 nM,0.987,> 2000 nM,0.988,> 16000 nM,0.987,> 20000 nM,0.933,> 20000 nM
"NCI-H1836 (small cell lung carcinoma, suspension)",0.925,> 5000 nM,0.9,> 1020 nM,0.986,> 1020 nM,0.951,> 10000 nM,0.986,> 1280 nM,0.967,> 10200 nM,0.961,> 256 nM,0.988,> 2000 nM,0.952,> 16000 nM,0.971,> 20000 nM,0.67,3930 nM
"NCI-H1838 (lung adenocarcinoma, adherent)",0.736,1730 nM,0.987,> 1020 nM,0.986,> 1020 nM,0.985,> 10000 nM,0.982,> 1280 nM,0.975,> 10200 nM,0.979,> 256 nM,0.986,> 2000 nM,0.985,> 16000 nM,0.979,> 20000 nM,0.968,> 20000 nM
"NCI-H1869 (lung squamous cell carcinoma, adherent)",0.525,369 nM,0.946,> 1020 nM,0.982,> 1020 nM,0.976,> 10000 nM,0.966,> 1280 nM,0.978,> 10200 nM,0.683,55.8 nM,0.983,> 2000 nM,0.975,> 16000 nM,0.978,> 20000 nM,0.948,> 20000 nM
"NCI-H1876 (small cell lung carcinoma, adherent)",0.471,260 nM,0.38,29.9 nM,0.979,> 1020 nM,0.986,> 10000 nM,0.987,> 1280 nM,0.975,> 10200 nM,0.933,> 256 nM,0.985,> 2000 nM,0.987,> 16000 nM,0.973,> 20000 nM,0.853,16000 nM
